Hit rate of the full screen: of about 420,000 compounds, about 50,000 (12%) were called active. The shares of active, inactive and inconclusive entries below differ from those in the screen. Calls follow the shape of the dose curve; as a rule, active = well fitted inhibition curve with a large enough effect; inconclusive = small, poorly fitted or top-dose-only effect; inactive = flat fitted curve, though single readings scatter. Potencies of inconclusive entries are left out as doubtful fits.
Assay: qHTS for Inhibitors of human tyrosyl-DNA phosphodiesterase 1 (TDP1): qHTS in cells in presence of CPT; also: nearly all actives have a fitted effect of over 55% in size
Conditions: chicken DT40 Tdp1-/-;hTDP1 cells + 20 nM CPT, ATP luminescence, 48 h; activity change, negative = growth inhibition: at 46.2 µM (top of the series) unless noted
Summary of the method: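 Chicken DT40 Tdp1-/- cells complemented with human TDP1, 400 cells/well, exposed to compounds plus 20 nM camptothecin for at least 48 h at 37 C; viability read as ATP content by CellTiter-Glo luminescence.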
% is scaled to controls: 0 for no effect and ±100 for the full control effect; potency is read from the fitted curve at half-maximal effect; tags tell the direction and shape of the fitted curve.

Which Potency does the source give for `Cc1cccc(C)c1NC(=O)C(c1ccc(C(F)(F)F)cc1)n1c(=O)c(-c2ccco2)nc2ccccc21` (centres undefined) here?
Its Potency is inconclusive [inhibitor, single point].

With `CC(C)(C)c1nnc2sc(SCC(O)=C(C#N)c3nc4ccccc4[nH]3)nn2c1=O` as the compound, how does the Potency read?
The Potency was inconclusive [inhibitor, single point].

For `CC1CCCN(c2ccc3nc4ccccc4c(=O)n3n2)C1` (centres undefined), which Potency is on record?
The Potency was inconclusive [inhibitor, single point].

With `O=C(c1cccs1)n1cc(C(=S)N2CCOCC2)c2ccccc21` as the compound, how does the “activity change, negative = growth inhibition” value read?
Its value is inactive: -1.19%.

For `COc1cccc(NC(=O)CC2SC(=Nc3ccccc3)NC2=O)c1` (centres undefined), which Potency is on record?
The Potency was inconclusive [inhibitor, partial curve].

With `CC(C)Nc1nnc(SC(C)C(=O)NCc2ccc3c(c2)OCO3)s1` (centres undefined) as the compound, how does the “activity change, negative = growth inhibition” value read?
Its value is inactive: 29.6%.

With `O=C1CC2(CCCCC2)Oc2ccc(Cl)cc21` as the compound, how does the “activity change, negative = growth inhibition” value read?
Its value is inactive: -2.7%.

Which Potency does the source give for `CCOc1ccccc1NC(=O)C(=O)N/N=C/c1cc(Br)ccc1O` here?
The Potency was inconclusive [inhibitor, single point].

Which Potency does the source give for `COc1ccc(-c2cc([C@H]3[C@@H]4C=CCC[C@@]4(C)C(=O)N3Cc3ccccc3)ccc2F)cc1OC` here?
Its Potency is active: 25.9 µM.

With `CC(C)(C)CNC(=O)C1(C)CCN1C(=O)Cc1ccc(C(C)(C)C)cc1` (centres undefined) as the compound, how does the Potency read?
Its Potency is inconclusive [inhibitor, single point].

Which Potency does the source give for `COc1ccc(C(=O)/C=C/Nc2ccc(S(=O)(=O)Nc3cccc(C(C)=O)c3)cc2)cc1` here?
Its Potency is inconclusive [inhibitor, single point].

Which Potency does the source give for `O=C(CN1CCN(c2ccccc2)CC1)Nc1ccccc1C(F)(F)F` here?
The Potency was inconclusive [inhibitor, single point].

With `COC(=O)c1c(-c2ccc(N(C)C)cc2)sc2ccc(OC)cc12` as the compound, how does the Potency read?
Its Potency is inconclusive [inhibitor, single point].

Which Potency does the source give for `Cc1cccc(C)c1NC(=O)c1cc(-c2ccccn2)nc2ccccc12` here?
The Potency was inconclusive [inhibitor, partial curve].

Which “activity change, negative = growth inhibition” value does the source give for `c1ccc(CCNC2=NCCCS2)cc1` here?
Its value is inactive: -11.5%.

With `CCOc1ccc2c(O)csc2c1` as the compound, how does the “activity change, negative = growth inhibition” value read?
The value was inactive: -1.24%.

Which Potency does the source give for `O=C(c1cccs1)N1CCN(C(=O)c2cn(-c3ccccc3)nc2-c2ccccc2)CC1` here?
Its Potency is inconclusive [inhibitor, partial curve, poor fit].

With `Cc1c(C)n(Cc2ccc(F)cc2)c2ccc(C(=O)NCCCN3CCOCC3)cc12` as the compound, how does the Potency read?
Its Potency is inconclusive [inhibitor, single point].

With `CS(=O)(=O)c1ccc2nc(NC(=O)Nc3ccc(Cl)cc3)sc2c1` as the compound, how does the Potency read?
Its Potency is inconclusive [inhibitor, single point].

For `CCCC(=O)Nc1cccc(-c2nc3ncccc3o2)c1`, which “activity change, negative = growth inhibition” value is on record?
The value was inactive: -14.4%.

With `COc1ccccc1NS(=O)(=O)c1cc(NC(=O)C2CCC2)ccc1N1CCCCC1` as the compound, how does the Potency read?
The Potency was inconclusive [inhibitor, single point].

For `CN(C)C1(CNC(=O)c2cccc(S(=O)(=O)Nc3ccc(Br)cc3)c2)CCCCC1`, which Potency is on record?
The Potency was inconclusive [inhibitor, single point].

Which Potency does the source give for `CC(=O)Nc1ccc(/C=N/Nc2nncc3ccccc23)cc1` here?
The Potency was inconclusive [inhibitor, single point].

With `COc1ccccc1N1CCN(C(=O)c2cnn(C(C)(C)C)c2C2CCN(C(=O)OC(C)(C)C)CC2)CC1` as the compound, how does the Potency read?
The Potency was active: 16.4 µM.

With `CC(C)(C)c1ccc(S(=O)(=O)/C=C\C#N)cc1` as the compound, how does the Potency read?
Its Potency is active: 0.473 µM.

For `CC(=O)c1ccc(NC(=O)C(C)OC(=O)c2ccc(Br)o2)cc1` (centres undefined), which Potency is on record?
The Potency was inconclusive [inhibitor, single point].

Which “activity change, negative = growth inhibition” value does the source give for `CCOc1ccc(-n2cnnn2)cc1S(=O)(=O)N1CCC(C)CC1C` (centres undefined) here?
Its value is inactive: -5.89%.

For `COc1cccc(N2CCN(CC(=O)N3CCN(S(=O)(=O)c4ccc(Cl)cc4)CC3)CC2)c1`, which Potency is on record?
The Potency was inconclusive [inhibitor, single point].

For `Cc1onc(-c2ccccc2)c1C(=O)NC1CCCCC1C` (centres undefined), which Potency is on record?
The Potency was inconclusive [inhibitor, single point].

With `COCCn1c(=O)c(-c2ccc(OC)cc2)nc2cnc(Oc3cccc(Cl)c3)nc21` as the compound, how does the “activity change, negative = growth inhibition” value read?
Its value is inactive: 4.38%.

With `CC(=O)Nc1ccc(N(C(=O)Cc2c[nH]c3ccccc23)C(C(=O)NC2CCCCC2)c2ccco2)cc1` (centres undefined) as the compound, how does the Potency read?
The Potency was inconclusive [inhibitor, single point].

For `O=C(OCc1ccccc1)N1CCC2CC1c1ccc(/C=C/CCCCl)cc12` (centres undefined), which Potency is on record?
The Potency was inconclusive [inhibitor, single point].

Which Potency does the source give for `CCSc1ncc(Cl)c(C(=O)N(Cc2ccccc2)c2ccc(OC)cc2)n1` here?
Its Potency is inconclusive [inhibitor, single point].

For `COc1ccc(OC)c(-c2cc(C(=O)Nc3ccc(F)cc3F)no2)c1`, which “activity change, negative = growth inhibition” value is on record?
Its value is inactive: -3.79%.

For `CCOc1cccc(NC(=O)c2sc3nc(-c4ccc(F)cc4)ccc3c2N)c1`, which “activity change, negative = growth inhibition” value is on record?
The value was inactive: -23.5%.

With `O=C(NCCS(=O)(=O)N1CCN(c2cccc(Cl)c2)CC1)C1CCCC1` as the compound, how does the Potency read?
Its Potency is inconclusive [inhibitor, single point].

For `COc1ccc(NC(=O)CCCN2C(=O)C(c3ccccc3)Oc3cccnc32)cc1` (centres undefined), which Potency is on record?
Its Potency is inconclusive [inhibitor, single point].

Which Potency does the source give for `O=C(c1ccc(C(F)(F)F)cc1)C1CCCN(Cc2cccn2-c2ncccn2)C1` (centres undefined) here?
Its Potency is inconclusive [inhibitor, single point].

With `O=C(CN1CCN(Cc2cccc(C(F)(F)F)c2)CC1)NCC(=O)Nc1ccc(F)c(F)c1F` as the compound, how does the Potency read?
Its Potency is inconclusive [inhibitor, single point].

Which Potency does the source give for `CCOC(=O)c1nc(Nc2ccc(N3CCC(C)CC3)cc2)c2ccccc2n1` here?
The Potency was active: 7.31 µM.

For `COc1cc(C(=O)Nc2ccc(-n3c(C)nc4ccccc4c3=O)cc2)cc(OC)c1OC`, which Potency is on record?
Its Potency is active: 16.4 µM.

With `CCOc1cc2c(cc1O)CCC1C2CCC2(C)C(O)CCC12` (centres undefined) as the compound, how does the Potency read?
The Potency was active: 0.259 µM.

Which “activity change, negative = growth inhibition” value does the source give for `CCn1cc(C(=O)O)c(=O)c2cnc(N3CCN(C(=S)Nc4ccccc4Cl)CC3)nc21` here?
Its value is inactive: -38.6%.

With `Cc1ccc(C(O)c2ncc(-c3ccc(Cl)cc3)[nH]2)cc1` (centres undefined) as the compound, how does the Potency read?
The Potency was inconclusive [inhibitor, single point].

— PubChem BioAssay AID686979 (National Center for Advancing Translational Sciences (NCATS), 2013)
